# Among all 44,000 compounds or so, about 340 (0.77%) were called active. Roughly 5% stayed inconclusive and do not appear here. Calls follow the shape of the dose curve; as a rule, active = well fitted inhibition curve with a large enough effect; inconclusive = small, poorly fitted or top-dose-only effect; inactive = flat fitted curve, though single readings scatter. The list shows a part of the results.
# Test: Acumen qHTS Assay for Inhibitors of the mTORC1 Signaling Pathway in MEF (Tsc2-/-, p53-/-) Cells: Sytravon; also: nearly all actives have a fitted effect of over 50% in size;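 as to activity change, negative = inhibition: plate controls were DMSO for no effect and rapamycin for full effect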
# Conditions: phospho-rpS6 immunofluorescence/PI, 24 h; series mostly up to 38.3 µM; activity change, negative = inhibition: at the top concentration
# How it was run: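 Tsc2-/-, p53-/- mouse embryonic fibroblasts (empty-vector line) exposed to compound 24 hrs at 37 C, fixed, immunostained for phospho-rpS6 and counterstained with propidium iodide. Acumen laser scanning gives % positive cells from Alexa 488/PI ratio, thresholded using 7.5 nM rapamycin; PI count gives viability.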
# Potency is read from the fitted curve at half-maximal effect.
SMILES,"activity change, negative = inhibition",Potency
COC(=O)c1ccccc1NC(=O)CN(c1ccc(Cl)cc1)S(=O)(=O)c1ccc(OC)cc1,inactive: 3.1%,
COc1ccc(CCNC(=O)Cn2c(=O)nc(-c3ccccc3F)c3cc(Cl)ccc32)cc1OC,inactive: 7.89%,
O=C(C1CCC(CNS(=O)(=O)c2cccs2)CC1)N1CCN(c2ccc(Cl)cc2)CC1 (centres undefined),inactive: -1.59%,
Cc1ccc2[nH]c(CSc3nnc(C)s3)cc(=O)c2c1,inactive: 4.44%,
CCOc1ccccc1NC(=O)C1CCN(S(=O)(=O)c2cccc3nonc23)CC1,inactive: -10.4%,
COc1ccc(N2CCN(c3ncnc4onc(C)c34)CC2)cc1,inactive: 5.84%,
Cc1cccc(N2CCN(C(=O)C3CCCN(C(=O)c4cc5sccc5n4C)C3)CC2)c1C (centres undefined),inactive: -13%,
O=C(Nc1cc(-c2ccc(F)c(F)c2)no1)c1ccccc1F,inactive: -4.08%,
CC1=C(C(=O)Nc2ccc(F)cc2)C(c2ccc(N(C)C)cc2)NC(=O)N1 (centres undefined),inactive: 4.44%,
CCC1CN(C(=O)C2CCN(S(=O)(=O)c3c(C)noc3/C=C/c3ccc(C)cc3)CC2)c2cc(C)ccc2O1 (centres undefined),inactive: -0.667%,
CCOc1ccc(CCNC(=O)Cn2ccc3cc(S(=O)(=O)N4CCCCCC4)ccc32)cc1,inactive: -7.89%,
COc1ccc(NC(=O)C(=O)c2cc(C)n(-c3ccc(C)cc3)c2C)cc1Cl,inactive: 1.28%,
COCCNC(=O)CCn1c(=O)[nH]c2cc(OC)c(OC)cc2c1=O,inactive: 4.6%,
CC1CCCN(c2ncnc3c2nnn3C)C1 (centres undefined),inactive: 1.71%,
CCC1CN(C(=O)N2CCC(C(=O)NCc3ccccc3F)CC2)c2ccccc2O1 (centres undefined),inactive: 2.13%,
CCCOC(=O)c1cccc(Nc2nc(C(=O)OCC)nc3ccccc23)c1,inactive: -22.5%,
O=C(Nc1ccc(C(F)(F)F)cc1)C1(c2cccs2)CCOCC1,inactive: 0.819%,
COc1ccc(CNC(=O)Cc2ccc(NC(=O)N3CCCCc4ccccc43)cc2)cc1,inactive: -0.0444%,
CCOc1ccc(NC(=O)c2cc(S(=O)(=O)N3CCC(C)CC3)cn2C)cc1,inactive: -0.992%,
CC(Oc1ccccc1F)C(=O)NCC1(N2CCOCC2)CCCCC1 (centres undefined),inactive: -19.7%,
Cc1ccc(NC(=O)c2c(C)oc3ncnc(N4CCCCC4)c23)c(C)c1,inactive: -2.08%,
Cc1cc(C)cc(NC(=O)c2cc(S(=O)(=O)N3CCCCC3)c[nH]2)c1,inactive: 2.05%,
COc1ccc(CNC(=O)C2CCN(c3nnc(C)c4c(C)n(-c5ccc(C)cc5)nc34)CC2)cc1,inactive: 0.966%,
CCc1ccc(NC(=O)c2sc3nc(C)cc(C)c3c2NC(=O)c2ccccc2)cc1,inactive: 4.26%,

SMILES,"activity change, negative = inhibition",Potency
Cc1ccc(-c2nn3c(C)nnc3c3ccccc23)cc1S(=O)(=O)NC(C)(C)CO,inactive: -5.16%,
COc1ccc(OC)c(-c2cc(C(=O)NCc3ccc(Cl)cc3)no2)c1,inactive: -5.48%,
Cc1ccccc1NC(=O)C1CCN(S(=O)(=O)c2cccc3nonc23)CC1,inactive: 1.61%,
O=C(Nc1nnc2n1CCS2)c1cc(C(F)(F)F)cc(C(F)(F)F)c1,inactive: 0.209%,
CCOc1ccc(N(C)S(=O)(=O)c2cc(-c3cnc(C)o3)ccc2OC)cc1,inactive: 2.3%,
COc1ccc(/C=C/C(=O)Nc2cccc(F)c2)cc1,inactive: 7.38%,
CN(C)S(=O)(=O)c1ccc2c(c1)N(CC(=O)N1CCC(C(N)=O)CC1)CCS2,inactive: -12.5%,
Cc1ccc(C)c(NC(=O)Cn2cc(S(=O)(=O)c3ccc(F)cc3)c(=O)c3cc(F)ccc32)c1,inactive: -3.85%,
Cn1c(=O)c2c(-c3ccccc3)n3c(c2n(C)c1=O)C(c1cccc([N+](=O)[O-])c1)Nc1ccccc1-3 (centres undefined),inactive: -11%,
COc1ccc(-c2cc(C(F)(F)F)n3nc(C(=O)Nc4ccc(Cl)cc4C(F)(F)F)cc3n2)cc1OC,inactive: 1.08%,
Cc1cccc(C)c1NC(=O)Cn1c(=O)n(CCC(=O)NCc2ccc3c(c2)OCO3)c(=O)c2sccc21,inactive: -2.71%,
Cc1ccc(NC(=O)C2CCCN(c3nc4ccccc4s3)C2)c(C)c1 (centres undefined),inactive: -3.69%,
COc1ccc(C(=O)N2CCN(CCc3ccccn3)CC2)cc1,inactive: -16.4%,
Cc1oc(-c2ccccc2)nc1Cn1c(=O)cc(-c2ccccc2)c2c(C)nn(C)c21,inactive: -7.84%,
CCN(C(=O)Cn1cnc2c1c(=O)n(C)c(=O)n2C)c1ccccc1C,inactive: 0.186%,
Cc1ccc(NC(=O)c2cnc(SCC(=O)N3CCCc4ccccc43)n(C)c2=O)cc1C,inactive: -1.02%,
COc1ccc(OCC(=O)Nc2ccc3c(c2)N(C)C(=O)c2ccccc2S3)cc1,inactive: -3.18%,
Cc1ccc2nc(Cl)c3cc(C(=O)N4CCCC(C)C4)sc3c2c1 (centres undefined),inactive: -12.4%,
CCn1c(=O)c2cc(C(=O)NCCc3ccc(OC)c(OC)c3)sc2c2ccccc21,inactive: 0.637%,
COc1ccc(-c2cc(C(=O)Nc3c(C(=O)c4ccc(C)c(F)c4)oc4ccccc34)no2)cc1,inactive: 0.332%,
O=C(CCS(=O)(=O)c1nc(-c2ccc3c(c2)OCO3)cc(C(F)(F)F)n1)Nc1ccccc1C(F)(F)F,inactive: 3.9%,
COC(=O)Cn1c(SCCOc2ccccc2Cl)nc2ccccc21,inactive: -10.3%,
COC(=O)CSc1nnc(-c2cccc(O)c2)o1,inactive: -0.961%,
COc1ccc(C(C)=O)cc1CSc1nc(NCc2ccc(Cl)cc2)c2ccccc2n1,inactive: -8.03%,

SMILES,"activity change, negative = inhibition",Potency
COc1ccc(-c2cc(C(F)(F)F)n3nc(C(=O)Nc4cccc(Cl)c4Cl)cc3n2)cc1OC,inactive: -9.15%,
CC1=C(C(=O)Nc2ccc(C)cc2C)C(c2cc(Br)ccc2F)n2ncc(C(=O)Nc3ccc(C)cc3)c2N1 (centres undefined),,active: 2.93 µM
CCOC(=O)c1cc(-c2ccc(C)cc2)n(CC(=O)Nc2cc(C)ccc2C)c1C,inactive: 0.274%,
CCc1ccccc1NC(=O)c1cc(S(=O)(=O)N2CCC(C)CC2)cn1C,inactive: 0%,
COc1ccccc1-c1nnc(C2CCN(S(=O)(=O)c3ccc(CC(C)C)cc3)CC2)o1,inactive: -12.3%,
Nc1c(C(=O)Nc2ccc(C(F)(F)F)cc2)sc2nc(-c3cccs3)ccc12,inactive: 1.17%,
O=C(CCc1ccccc1)NCc1ccc2c(c1)CCN2C(=O)c1ccccc1,inactive: -7.51%,
COc1cccc(-c2nc(SCc3cccc(Br)c3)n3[nH]c(=O)cc3n2)c1,inactive: 0%,
Cn1cc(C(=O)O)c(=O)c2cc(S(=O)(=O)N3CCOCC3)ccc21,inactive: -0.412%,
CC(=O)N1CCc2c(sc3c2c(=O)n(CCc2ccccc2)c(=O)n3CC(=O)Nc2ccccc2F)C1,inactive: 2.72%,
COc1ccccc1NC(=O)c1oc2ccccc2c1NC(=O)Cc1cccs1,inactive: -42%,
COc1ccc(-n2c(SCC(=O)c3ccc(Cl)cc3)nc3c([nH]c4ccccc43)c2=O)cc1,inactive: 2.29%,
COc1cc2c(cc1OC)C(c1ccc(Cl)cc1)N(c1cccc(C#N)c1)C(=O)C2 (centres undefined),inactive: 1.89%,
COc1ccccc1N1CCN(c2ccc(=O)n(CC(=O)Nc3cc(F)ccc3C)n2)CC1,inactive: 0.0619%,
COc1ccc(CCNc2ncnc3onc(-c4ccc(Cl)cc4)c23)c(OC)c1,inactive: -2.8%,
CCc1ccc(NC(=O)CN2C(=O)C3CCCN3c3ccc(S(=O)(=O)N(CC)CC)cc32)cc1 (centres undefined),inactive: 4.48%,
Cn1cc(S(=O)(=O)N2CCCCCC2)cc1C(=O)N1CCN(c2ccccc2F)CC1,inactive: -3.14%,
Cc1c(CC(=O)N2CCCCC2)c(=O)oc2cc(O)ccc12,inactive: -2.49%,
Cc1ccccc1Nc1sc(C(=O)c2ccccc2)c(N)c1S(C)(=O)=O,inactive: -0.29%,
CCc1ccc(NC(=O)Cn2c(=O)n(CCCC(=O)NCc3ccccc3Cl)c(=O)c3ccccc32)cc1,inactive: 0.962%,
Cc1cc(NC(=O)CSc2nc(-c3cccc(F)c3)nc3c2c(=O)n(C)c(=O)n3C)no1,inactive: 5.65%,
Cc1ccc(-c2nc3cc(NC(=O)Cc4ccc(Cl)cc4)ccc3o2)cc1,inactive: -7.62%,
CCOC(=O)c1ccc(N2CC3=C(C2=O)C(c2ccc(OC)cc2)NC(=O)N3C)cc1 (centres undefined),inactive: 10.5%,
COc1ccc2c(Sc3ccc(C)cc3)c(C(=O)NCC(C)c3ccccc3)[nH]c2c1 (centres undefined),inactive: 4.01%,

SMILES,"activity change, negative = inhibition",Potency
COc1ccccc1-c1nc2c(c(SCc3cc(C)ccc3C)n1)Cc1c(CO)cnc(C)c1O2,inactive: -4.38%,
Cc1ccc(CNC(=O)c2cc3c(=O)oc4ccc(C)cc4c3s2)cc1,inactive: 0.458%,
COc1ccc(N(CC(=O)N2CCN(c3ccccc3F)CC2)S(=O)(=O)c2c(C)noc2C)cc1,inactive: 0.729%,
CCCNC(=O)Cn1nc(-c2ccc(C)c(C)c2)c2cnc3ccc(OC)cc3c21,inactive: -3.31%,
COc1ccccc1NC(=O)Cn1cnc2ccc(S(=O)(=O)N3CCC(C)CC3)cc2c1=O,inactive: 6.04%,
COc1ccc2oc(=O)c(C(=O)NCCc3c(C)[nH]c4ccc(C)cc34)cc2c1,inactive: -10.9%,
Cc1cc(OCC(=O)N(Cc2ccc(N(C)C)cc2)Cc2ccco2)cc(C)c1Cl,inactive: -4.31%,
CCOC(=O)c1ccc(OC(=O)c2cn(-c3ccc(C)cc3)c(=O)c3ccccc23)cc1,inactive: 0.986%,
Cc1nn(-c2ccccc2)c(-n2cccc2)c1C(=O)N1CCN(c2ccccc2)CC1,inactive: -7.3%,
COc1ccc(NC(=O)Cn2c(=O)n(Cc3ccco3)c(=O)c3sc4ccccc4c32)c(OC)c1,inactive: -17.1%,
Cc1ccc(NC(=O)C2CCCN(C(=O)c3cnn(-c4ccccc4)c3-n3cccc3)C2)cc1 (centres undefined),inactive: 2.3%,
COCCCN1C(=O)c2[nH]nc(-c3cc(C)ccc3O)c2C1c1ccc(F)cc1 (centres undefined),inactive: -7.74%,
COc1ccc(CNC(=O)c2cc3sccc3n2Cc2ccc(F)cc2)cc1,inactive: -14.4%,
O=C(Nc1noc2ccccc12)c1cccc(Cl)c1Cl,inactive: -1.34%,
Cc1ccccc1NC(=O)C(Cc1ccccc1)N1Cc2ccccc2C1=O (centres undefined),inactive: 2.57%,
Cc1cccc(OCC(=O)Nc2ccc(S(=O)(=O)Nc3onc(C)c3C)cc2)c1C,inactive: -0.491%,
CCc1nnc(NC(=O)CSc2nc3c([nH]c4ccccc43)c(=O)n2-c2ccc(F)cc2)s1,inactive: -1.63%,
Cc1ccc2oc(=O)c3cc(C(=O)Nc4ccc(C)c(F)c4)sc3c2c1,inactive: 1.26%,
COc1ccccc1/C=C/c1onc(C)c1S(=O)(=O)N1CCC(C(=O)N2CCC(C)CC2)CC1,inactive: 0.64%,
Cc1c(Cl)cccc1NC(=O)c1cc(S(=O)(=O)N2CCCCC2)cn1C,inactive: -0.647%,
Cc1ccc(-n2nc(C)c3c(C)cc(=O)n(CC(=O)Nc4cc(Cl)ccc4C)c32)cc1,inactive: -6.74%,
Cc1cccn2c(=O)cc(COc3ccc(NC(=O)C(C)C)cc3)nc12,inactive: -18.8%,
